# Measurements as given in the supplement of paper PMC8728848.
# The other results are listed elsewhere or left out.
# B1: AMA (Arum maculatun) (protein)
# chain: MAKLLLLLLLPAIVGLAVPRSAAAVGSNYMLSGETLNTDGRLTNGELTLIMQVDCNLVLYHGGWQSNTANNGRDCKLTLTDFGELVIKSGTGSTVWSSGSKQSMKGNYAAVVHPEGRLVIYGPSVFKINPSGAGLNGLPLRNIPLTNNMLFSGQVLYGDGTLSARNHKLVMQGDCNMVLYGGKYGWQSNTHGNGKYCFAMLTHKGELVIRDDDFKSVWSSKSSSKQGDYVFILQDDSLAIIYGPAVFSTGSKKMISMVTN
# Experiments:
# Assay in all cases: glycan array binding signal (z-score within array); higher = stronger binding
# Settings in all cases: glycan notation: IUPAC condensed, linker removed
# [1] = biological target: Fuc(a1-2)Gal(b1-4)[Fuc(a1-3)]GlcNAc
# Method in brief: (§1)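 Glycan array data were curated from 3228 arrays in the Consortium for Functional Glycomics database and kept only where the protein sequence was available. Glycan names were converted to IUPAC-condensed notation, and columns mapping to the same glycan were averaged. The binding signal is a within-array Z-score, averaged across arrays of the same protein sequence at different concentrations or buffers and across linkers. Negative Z-scores can be read as non-binding.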
# [2] = biological target: Fuc(a1-2)Gal(b1-4)[Fuc(a1-3)]GlcNAc(b1-2)Man(a1-3)[Fuc(a1-2)Gal(b1-4)[Fuc(a1-3)]GlcNAc(b1-2)Man(a1-6)]Man(b1-4)GlcNAc(b1-4)[Fuc(a1-6)]GlcNAc
# Method in brief: as §1
# [3] = biological target: Fuc(a1-2)Gal(b1-4)[Fuc(a1-3)]GlcNAc(b1-2)[Fuc(a1-2)Gal(b1-4)[Fuc(a1-3)]GlcNAc(b1-4)]Man(a1-3)[Fuc(a1-2)Gal(b1-4)[Fuc(a1-3)]GlcNAc(b1-2)Man(a1-6)]Man(b1-4)GlcNAc(b1-4)GlcNAc
# Method in brief: as §1
# [4] = biological target: Fuc(a1-2)Gal(b1-4)[Fuc(a1-3)]GlcNAc(b1-3)Gal(b1-4)[Fuc(a1-3)]GlcNAc
# Method in brief: as §1
# [5] = biological target: Fuc(a1-2)Gal(b1-4)[Fuc(a1-3)]GlcNAc(b1-3)Gal(b1-4)[Fuc(a1-3)]GlcNAc(b1-3)Gal(b1-4)[Fuc(a1-3)]GlcNAc
# Method in brief: as §1
# [6] = biological target: Fuc(a1-2)Gal(b1-4)[Fuc(a1-3)]GlcNAc(b1-3)GalNAc
# Method in brief: as §1
# [7] = biological target: Fuc(a1-2)Gal(b1-4)[Fuc(a1-3)]GlcNAc(b1-3)[Neu5Ac(a2-6)Gal(b1-4)GlcNAc(b1-6)]Gal(b1-4)Glc
# Method in brief: as §1
# [8] = biological target: Fuc(a1-2)Gal3S(b1-4)GlcNAc
# Method in brief: as §1
# [9] = biological target: Fuc(a1-2)Gal6S(b1-3)GlcNAc
# Method in brief: as §1
# [10] = biological target: Fuc(a1-2)Gal6S(b1-3)GlcNAc6S
# Method in brief: as §1
# Fuc(a1-2)Gal6S(b1-4)Glc = biological target: Fuc(a1-2)Gal6S(b1-4)Glc
# Method in brief: as §1
# [11] = biological target: Fuc(a1-2)Gal6S(b1-4)Glc6S
# Method in brief: as §1
# Fuc(a1-2)GlcNAc = biological target: Fuc(a1-2)GlcNAc
# Method in brief: as §1
# Fuc(a1-2)[Gal(a1-3)]Gal = biological target: Fuc(a1-2)[Gal(a1-3)]Gal
# Method in brief: as §1
# [12] = biological target: Fuc(a1-2)[Gal(a1-3)]Gal(b1-3)GalNAc
# Method in brief: as §1
# [13] = biological target: Fuc(a1-2)[Gal(a1-3)]Gal(b1-3)GalNAc(b1-3)Gal(a1-4)Gal(b1-4)Glc
# Method in brief: as §1
# [14] = biological target: Fuc(a1-2)[Gal(a1-3)]Gal(b1-3)GlcNAc
# Method in brief: as §1
# [15] = biological target: Fuc(a1-2)[Gal(a1-3)]Gal(b1-3)GlcNAc(b1-2)Man(a1-3)[Fuc(a1-2)[Gal(a1-3)]Gal(b1-3)GlcNAc(b1-2)Man(a1-6)]Man(b1-4)GlcNAc(b1-4)GlcNAc
# Method in brief: as §1
# [16] = biological target: Fuc(a1-2)[Gal(a1-3)]Gal(b1-3)GlcNAc(b1-2)Man(a1-3)[Fuc(a1-2)[Gal(a1-3)]Gal(b1-3)GlcNAc(b1-2)Man(a1-6)]Man(b1-4)GlcNAc(b1-4)[Fuc(a1-6)]GlcNAc
# Method in brief: as §1
# [17] = biological target: Fuc(a1-2)[Gal(a1-3)]Gal(b1-3)GlcNAc(b1-3)GalNAc
# Method in brief: as §1
# [18] = biological target: Fuc(a1-2)[Gal(a1-3)]Gal(b1-3)GlcNAc(b1-6)GalNAc
# Method in brief: as §1
# [19] = biological target: Fuc(a1-2)[Gal(a1-3)]Gal(b1-4)Glc
# Method in brief: as §1
# [20] = biological target: Fuc(a1-2)[Gal(a1-3)]Gal(b1-4)GlcNAc
# Method in brief: as §1
# [21] = biological target: Fuc(a1-2)[Gal(a1-3)]Gal(b1-4)GlcNAc(b1-2)Man
# Method in brief: as §1
# [22] = biological target: Fuc(a1-2)[Gal(a1-3)]Gal(b1-4)GlcNAc(b1-2)Man(a1-3)[Fuc(a1-2)[Gal(a1-3)]Gal(b1-4)GlcNAc(b1-2)Man(a1-6)]Man(b1-4)GlcNAc(b1-4)GlcNAc
# Method in brief: as §1
# [23] = biological target: Fuc(a1-2)[Gal(a1-3)]Gal(b1-4)GlcNAc(b1-2)Man(a1-3)[Fuc(a1-2)[Gal(a1-3)]Gal(b1-4)GlcNAc(b1-2)Man(a1-6)]Man(b1-4)GlcNAc(b1-4)[Fuc(a1-6)]GlcNAc
# Method in brief: as §1
# [24] = biological target: Fuc(a1-2)[Gal(a1-3)]Gal(b1-4)GlcNAc(b1-3)GalNAc
# Method in brief: as §1
# [25] = biological target: Fuc(a1-2)[Gal(a1-3)]Gal(b1-4)GlcNAc(b1-6)GalNAc
# Method in brief: as §1
# [26] = biological target: Fuc(a1-2)[Gal(a1-3)]Gal(b1-4)[Fuc(a1-3)]Glc
# Method in brief: as §1
# [27] = biological target: Fuc(a1-2)[Gal(a1-3)]Gal(b1-4)[Fuc(a1-3)]GlcNAc
# Method in brief: as §1
# [28] = biological target: Fuc(a1-2)[Gal(a1-3)]Gal(b1-4)[Fuc(a1-3)]GlcNAc(b1-3)GalNAc
# Method in brief: as §1
# [29] = biological target: Fuc(a1-2)[Gal(a1-4)]Gal(b1-4)GlcNAc
# Method in brief: as §1
# [30] = biological target: Fuc(a1-2)[GalNAc(a1-3)]Gal
# Method in brief: as §1
# [31] = biological target: Fuc(a1-2)[GalNAc(a1-3)]Gal(b1-3)GalNAc(a1-3)[Fuc(a1-2)]Gal(b1-4)GlcNAc
# Method in brief: as §1
# [32] = biological target: Fuc(a1-2)[GalNAc(a1-3)]Gal(b1-3)GalNAc(b1-3)Gal(a1-4)Gal(b1-4)Glc
# Method in brief: as §1
# [33] = biological target: Fuc(a1-2)[GalNAc(a1-3)]Gal(b1-3)GlcNAc
# Method in brief: as §1
# [34] = biological target: Fuc(a1-2)[GalNAc(a1-3)]Gal(b1-3)GlcNAc(b1-2)Man(a1-3)[Fuc(a1-2)[GalNAc(a1-3)]Gal(b1-3)GlcNAc(b1-2)Man(a1-6)]Man(b1-4)GlcNAc(b1-4)GlcNAc
# Method in brief: as §1
# [35] = biological target: Fuc(a1-2)[GalNAc(a1-3)]Gal(b1-3)GlcNAc(b1-2)Man(a1-3)[Fuc(a1-2)[GalNAc(a1-3)]Gal(b1-3)GlcNAc(b1-2)Man(a1-6)]Man(b1-4)GlcNAc(b1-4)[Fuc(a1-6)]GlcNAc
# Method in brief: as §1
binder,measurement,setting,value
B1,glycan array binding signal (z-score),[1],-0.22
same,glycan array binding signal (z-score),[2],1.12
same,glycan array binding signal (z-score),[3],-0.176
same,glycan array binding signal (z-score),[4],-0.211
same,glycan array binding signal (z-score),[5],-0.209
same,glycan array binding signal (z-score),[6],-0.197
same,glycan array binding signal (z-score),[7],-0.206
same,glycan array binding signal (z-score),[8],-0.211
same,glycan array binding signal (z-score),[9],-0.22
same,glycan array binding signal (z-score),[10],-0.193
same,glycan array binding signal (z-score),Fuc(a1-2)Gal6S(b1-4)Glc,-0.208
same,glycan array binding signal (z-score),[11],-0.208
same,glycan array binding signal (z-score),Fuc(a1-2)GlcNAc,-0.234
same,glycan array binding signal (z-score),Fuc(a1-2)[Gal(a1-3)]Gal,-0.206
same,glycan array binding signal (z-score),[12],-0.211
same,glycan array binding signal (z-score),[13],-0.22
same,glycan array binding signal (z-score),[14],-0.191
same,glycan array binding signal (z-score),[15],0.496
same,glycan array binding signal (z-score),[16],0.7
same,glycan array binding signal (z-score),[17],-0.22
same,glycan array binding signal (z-score),[18],-0.221
same,glycan array binding signal (z-score),[19],-0.205
same,glycan array binding signal (z-score),[20],-0.222
same,glycan array binding signal (z-score),[21],-0.215
same,glycan array binding signal (z-score),[22],0.463
same,glycan array binding signal (z-score),[23],1.04
same,glycan array binding signal (z-score),[24],-0.187
same,glycan array binding signal (z-score),[25],-0.214
same,glycan array binding signal (z-score),[26],-0.214
same,glycan array binding signal (z-score),[27],-0.211
same,glycan array binding signal (z-score),[28],-0.211
same,glycan array binding signal (z-score),[29],-0.207
same,glycan array binding signal (z-score),[30],-0.219
same,glycan array binding signal (z-score),[31],-0.215
same,glycan array binding signal (z-score),[32],-0.22
same,glycan array binding signal (z-score),[33],-0.218
same,glycan array binding signal (z-score),[34],0.844
same,glycan array binding signal (z-score),[35],0.701
